Test results: PubChem BioAssay AID504884 (Broad Institute, 2011)
Hit rate of the full screen: of about 360,000 compounds, about 230 (0.064%) were called active. The shares of active, inactive and inconclusive entries below differ from those in the screen. No stated cut-off is given here; in the data, active means activity above about 50% (passing the limit was not always enough); inconclusive means no clear call, values can overlap the other calls.

Tested on: DNA topoisomerase I (Yersinia pestis CO92)
Assay: Yersinia pestis topoisomerase I inhibitors, primary screen, biochemical, cleavage product accumulation, plate reader, single point (AID 504884)
Settings: Y. pestis Topo-I cleavage product accumulation, at 10 µM, hits give high values

| SMILES | activity |
| --- | --- |
| Fc1cccc(CCN2C(=S)NC[C@@H]2CC2CCCCC2)c1 | active: 51.9% |
| Cc1ccccc1NCC(=O)c1ccc(Br)cc1 | active: 176% |
| Clc1ccc(COC(Cn2ccnc2)c2ccc(Cl)cc2Cl)c(Cl)c1 (stereo unspecified) | inconclusive: 52.9% |
| Cc1cc(C)cc(C(=O)N2CCC(CCC(=O)NC3CC3)CC2)c1 | inconclusive: 57.6% |
| COc1ccc([C@H]2C[C@@H](O)[C@H](n3cc(COC(=O)c4ccccc4)nn3)CN2CC2CCCCC2)cc1 | inconclusive: 53.1% |
| COc1ccc2c(c1)CCC/C2=N/OC(=O)c1ccccc1OC | inconclusive: 117% |
| Cc1ccc(S(=O)(=O)NC(CC(=O)OCc2ccccc2)C(=O)OCc2ccccc2)cc1 (stereo unspecified) | inconclusive: 50.8% |
| COc1ccc(S(=O)(=O)NCC2CCCN(C(=O)c3cccnc3C)C2)cc1 (stereo unspecified) | inconclusive: 58.7% |
| S=C(NCc1ccccc1)N/N=C/c1cccs1 | inactive: 2.99% |
| CSCCC(NC(=O)COc1ccccc1)C(=O)OCc1ccc([N+](=O)[O-])cc1 (stereo unspecified) | inconclusive: 50.1% |
| CN(Cc1ccccc1)c1nc2c(c(=O)[nH]c(=O)n2C)n1CCSc1nc2ccccc2[nH]1 | inconclusive: 50.2% |
| O=C(COC(=O)CNS(=O)(=O)/C=C/c1ccccc1)Nc1cc(S(=O)(=O)N2CCCCC2)ccc1Cl | inconclusive: 54.4% |
| COCCCn1c(-c2ccc(OC)cc2)cc(C(=O)NC2CCCCCCC2)c1C | active: 56.1% |
| O=C(COc1c(Cl)cccc1Cl)Nc1ccccc1N1CCCC1 | active: 53.6% |
| CN(Cc1ccc(F)cc1)C(=O)c1cccc(OCc2ccccc2)c1 | inconclusive: 53.2% |
| CCCCCCN1C[C@@H](n2cc(-c3ccc(F)cc3)nn2)[C@H](O)C[C@@H]1c1ccc(OC)cc1 | active: 64.9% |
| Cc1ccccc1CC1(CO)CCCN(C(=O)CCCN2CCCCC2=O)C1 (stereo unspecified) | inconclusive: 71.4% |
| Cc1ccc2c(C)nc(Nc3nc(CSc4nc5ccccc5[nH]4)cc(=O)[nH]3)nc2c1 | inconclusive: 50.4% |
| C=Cc1ccc(Cn2nc(-c3ccccc3)ccc2=O)cc1 | inconclusive: 50.6% |
| Cc1ccccc1Cn1cc(CCC(=O)N2CCOCC2)c2ccccc21 | active: 53.7% |
| COc1ccc(S(=O)(=O)Cc2ccc(C(=O)NCc3ccco3)o2)cc1 | inactive: 1.06% |
| O=C(NC(c1ccc(Cl)cc1)c1ccsc1)C1CCN(CCOc2ccc(Cl)cc2)CC1 (stereo unspecified) | inactive: 3.54% |

| SMILES | activity |
| --- | --- |
| COc1ccc(NC(=O)CN(C)C(=O)/C=C/c2ccc(S(=O)(=O)N3CCCCCC3)cc2)cc1 | active: 76.7% |
| Cc1onc(-c2ccccc2Cl)c1C(=O)Nc1nnc(-c2ccc(Cl)cc2Cl)s1 | inactive: -2.48% |
| C/C(=N\Nc1nc2c(s1)CCCC2)c1ccc(Cl)cc1 | inconclusive: 86.4% |
| CC(=O)Nc1ccc(C(=O)N2CCCCC2c2cc(C(=O)Nc3cccc4c3CCCC4)no2)cc1 (stereo unspecified) | inconclusive: 185% |
| COc1ccc(/C=C/C(=O)NCc2cn(C)nc2C)cc1COc1ccc(Cl)cc1Br | inconclusive: 50.5% |
| CO[C@@H]1C=CC23c4cc5c(cc4CO[C@]2(O)CN(C)[C@H]3C1)OCO5 (stereo partly specified) | inconclusive: 79.1% |
| Cc1ccc(NC(=O)CSCc2nc3c(nnn3Cc3ccc(F)cc3)c(=O)[nH]2)c(C)c1 | inconclusive: 53.7% |
| C[C@H]1CCC(=O)N([C@H](CSc2ccccc2)Cc2ccccc2)CC1 | active: 59.9% |
| CC1CN(c2ncnc3c2c(-c2ccccc2)cn3-c2ccc(F)cc2)CC(C)O1 (stereo unspecified) | inconclusive: 58.4% |
| CC(C)(C)OC(=O)NCCCCCc1nnc(SCc2ccccc2)o1 | active: 56.9% |
| COC(=O)C(C)Oc1cc(C)cc2oc(=O)c3c(c12)CCCC3 (stereo unspecified) | inactive: 9.88% |
| CS(=O)(=O)N(Cc1ccc(C(=O)Nc2ccccc2Sc2ccccc2)cc1)c1ccccc1 | inconclusive: 53% |
| CCC1=NN(C(=O)c2ccccc2Br)C(O)(c2ccc(Br)cc2)C1 (stereo unspecified) | inconclusive: 57.9% |
| COc1c(N2CCN(C(=S)NCc3ccccc3)C(C)C2)c(F)cc2c(=O)c(C(=O)O)cn(C3CC3)c12 (stereo unspecified) | active: 61.7% |
| CCOC(=O)C1(Cc2cccc(OC)c2)CCCN(Cc2cc(C(C)C)n[nH]2)C1 (stereo unspecified) | inconclusive: 140% |
| O=C(c1ccc(COc2ccccc2Br)cc1)N1CCCCC1 | inconclusive: 52.6% |
| O=C(c1cccc(C(F)(F)F)c1)N1CCOC12CCN(c1ncc(C(F)(F)F)cc1Cl)CC2 | inconclusive: 51.2% |
| CC(=O)c1cccc(NC(=O)CCc2nnc3ccc(NCc4ccc5c(c4)OCO5)nn23)c1 | active: 72.9% |
| Cc1nc(C)n(C(C)CNC(=O)c2ccccc2)n1 (stereo unspecified) | inactive: 1.77% |
| COc1ccccc1OCc1nc(C#N)c(NCCCn2ccnc2)o1 | inconclusive: 62.3% |
| CCC(c1nnnn1Cc1ccc2c(c1)OCO2)N1CCN(c2ccc(OC)cc2)CC1 (stereo unspecified) | inconclusive: 69.5% |
| COCc1cc(C)nc(SCc2ccc(Br)cc2)c1C#N | active: 50.3% |

| SMILES | activity |
| --- | --- |
| Cc1cccc(OCCCC(=O)N2CCCc3ccccc32)c1C | inconclusive: 50.4% |
| CCOC(=O)Nc1nc(-c2ccccc2)c(C(=O)c2ccc(Cl)cc2)s1 | inactive: 30.9% |
| COc1ccc(-n2cnc3c(sc4nc(N5CCOCC5)c5c(c43)CCCC5)c2=O)cc1 | inconclusive: 54.6% |
| O=C(COc1ccc2cc(Br)ccc2c1Br)N1CCOCC1 | active: 53.1% |
| O=C1c2cccc(OCc3ccc(F)cc3)c2CCN1Cc1ccccc1 | inconclusive: 50.8% |
| O=C(Nc1c(-c2cccs2)nc2ccccn12)c1ccccc1F | inactive: 3.68% |
| O=C(Cn1ncc2c(=O)oc3ccccc3c21)N1CCc2ccccc2C1 | inconclusive: 51.4% |
| C=CC[C@]12CCc3ccccc3C1N(c1ccc(C(=O)OCC)cc1)C2=O (stereo partly specified) | inconclusive: 61.1% |
| Cc1ccoc1C(=O)Nc1ccc2ccccc2c1 | inactive: -1.62% |
| O=C(Nc1ccccc1Cl)OCC#CCOC(=O)Nc1ccccc1Cl | active: 54.7% |
| COc1cccc(N2CC(C(=O)N3CCC4(CC3)CC(=O)c3ccccc3O4)CC2=O)c1 (stereo unspecified) | active: 217% |
| Cc1ccc(C)c(/C=N/NC(=S)NCCc2ccccc2)c1 | inconclusive: 53% |
| Cc1ccc(Cn2ncc3c(N4CCN(Cc5ccc(Cl)cc5)CC4)ncnc32)cc1 | inconclusive: 50% |
| CC(Oc1ccc(F)cc1)C(=O)Nc1ccccc1N1CCCCC1 (stereo unspecified) | active: 65.2% |
| COc1ccc(CN2CCN(c3ccccn3)CC2)cc1OCc1ccccc1 | inconclusive: 50.8% |
| COc1ccccc1CN(C)CC(=O)Nc1ccc(Cl)cc1C(F)(F)F | inconclusive: 53.7% |
| O=C(c1cc(COc2c(F)cccc2F)on1)N(Cc1ccccc1)CC1CC1 | active: 63.9% |
| COc1ccc(N(CC(=O)Nc2nccs2)S(=O)(=O)c2c(C)nn(C)c2C)cc1 | inconclusive: 92.1% |
| Clc1cccc(/C=N/N2CCN(Cc3ccccc3)CC2)c1 | inconclusive: 52.2% |
| CN(Cc1ccccc1F)Cc1cc(=O)oc2cc(O)c(Cl)cc12 | inactive: 9.4% |
| CSc1nc2nccc(-c3ccc(Oc4ccccc4)cc3)n2n1 | inconclusive: 54.7% |
| COc1cccc(C(CNC(=O)C(c2ccccc2)c2ccccc2)N(C)C)c1 (stereo unspecified) | inactive: 8.93% |

| SMILES | activity |
| --- | --- |
| CCCCN1C[C@H](Cc2ccccc2)[C@@H](CC(=O)Nc2ccccc2)C1=O | inconclusive: 295% |
| CC(OCC(O)CN1CCN(S(=O)(=O)c2ccc(Cl)cc2)CC1)c1ccc(Cl)cc1 (stereo unspecified) | inconclusive: 50.7% |
| COc1ccc(C2CC(=O)Oc3cc(C)cc(C)c32)cc1 (stereo unspecified) | inactive: 17.4% |
| COc1ccc(CCNC(=O)c2ccc3c(c2)SC2=NS(=O)(=O)CCN23)cc1 | inactive: -3.46% |
| CCOC(=O)C1(CCc2ccccc2)CCN(C(=O)CCn2cnnn2)CC1 | inconclusive: 57.6% |
| Cc1cc(O)c2c(c1)C(=O)C13C(=C2O)C(=O)[C@H]2[C@@H](O)[C@@H]1[C@H]1[C@H](O)[C@@H]3C(=O)C3=C(O)c4c(O)cc(C)cc4C(=O)C312 (stereo partly specified) | active: 403% |
| COc1ccccc1NC(=O)C(C)NC(c1ccccc1)c1ccccc1 (stereo unspecified) | inconclusive: 50.5% |
| COc1cc(C2C(C(=O)c3ccc(C)o3)=C(O)C(=O)N2c2cc(C)on2)ccc1OCc1ccccc1 (stereo unspecified) | inconclusive: 51.6% |
| CC(=O)NN1C(=O)c2ccccc2NC1c1ccco1 (stereo unspecified) | inactive: 10.8% |
| CCC(C(=O)NC1CCCC1)N(C(=O)Cn1nnc(-c2ccc(C)o2)n1)c1cccc(OC)c1 (stereo unspecified) | inconclusive: 563% |
| Cc1cccc(N=Nc2ccc(N(C)C)cc2)c1 | inactive: -2.79% |
| Cc1ccc(OCC(=O)Nc2ccc(S(=O)(=O)N3CCOCC3)cc2)c(Br)c1 | inconclusive: 66.3% |
| O=C(O)c1nn(CCOc2cccc(Br)c2)c(=O)c2ccccc12 | active: 52.3% |
| O=[N+]([O-])c1ccc(-c2cn(-c3ccccc3F)c(=S)[nH]2)cc1 | inconclusive: 53.5% |
| CCN1CCN(C(=O)CCCn2c(C)c3cnn(-c4ccccc4)c(=O)c3c2C)CC1 | inconclusive: 98.8% |
| Cc1ccc(CSc2nnc(-c3ccccn3)n2Cc2cccs2)cc1 | inconclusive: 55.1% |
| COc1cc(NC(=O)Nc2nnc([C@H]3C[C@H](O)[C@@H](CO)O3)s2)cc(OC)c1 | inactive: -1.92% |
| O=C(Cc1ccccc1)CC(CC(=O)c1ccccc1)c1ccccc1 (stereo unspecified) | active: 56.2% |
| Cc1cc(Cl)ccc1OC(C)C(=O)Nc1ccccc1N1CCOCC1 (stereo unspecified) | active: 63.2% |
| CCCOc1ccc(C(=O)Nc2ccc(S(=O)(=O)N3C[C@@H]4C[C@@H](C3)c3cccc(=O)n3C4)cc2)cc1 | active: 67.3% |
